Source: a protein production outcome set (Wang et al. 2014)

Test: label from the status in PepcDB records

Sequence	protein production
METSSPRPPRPSSNPGLSLDARLGVDTRLWAKVLFTALYALIWALGAAGNALSVHVVLKARAGRAGRLRHHVLSLALAGLLLLLVGVPVELYSFVWFHYPWVFGDLGCRGYYFVHELCAYATVLSVAGLSAERCLAVCQPLRARSLLTPRRTRWLVALSWAASLGLALPMAVIMGQKHELETADGEPEPASRVCTVLVSRTALQVFIQVNVLVSFVLPLALTAFLNGVTVSHLLALCSQVPSTSTPGSSTPSRLELLSEEGLLSFIVWKKTFIQGGQVSLVRHKDVRRIRSLQRSVQVLRAIVVMYVICWLPYHARRLMYCYVPDDAWTDPLYNFYHYFYMVTNTLFYVSSAVTPLLYNAVSSSFRKLFLEAVSSLCGEHHPMKRLPPKPQSPTLMDTASGFGDPPETRT	failed
MKLIVGMTGATGAXLGVALLQALREMPNVETHLVMSKWAKTTIELETPYSARDVAALADFSHNPADQAATISSGSFRTDGMIVIPCSMKTLAGIRAGYADGLVGRAADVVLKEGRKLVLVPREMPLSTIHLENMLALSRMGVAMVPPMPAFYNHPETVDDIVHHVVARVLDQFGLEHPYARRWQGLPQARNFSQENE	not failed
MVFAHRMDNSKPHLIIPTLLVPLQNRSCTETATPLPSQYLMELSEEHSWMSNQTDLHYVLKPGEVATASIFFGILWLFSIFGNSLVCLVIHRSRRTQSTTNYFVVSMACADLLISVASTPFVLLQFTTGRWTLGSATCKVVRYFQYLTPGVQIYVLLSICIDRFYTIVYPLSFKVSREKAKKMIAASWIFDAGFVTPVLFFYGSNWDSHCNYFLPSSWEGTAYTVIHFLVGFVIPSVLIILFYQKVIKYIWRIGTDGRTVRRTMNIVPRTKVKTIKMFLILNLLFLLSWLPFHVAQLWHPHEQDYKKSSLVFTAITWISFSSSASKPTLYSIYNANFRRGMKETFCMSSMKCYRSNAYTITTSSRMAKKNYVGISEIPSMAKTITKDSIYDSFDREAKEKKLAWPINSNPPNTFV	failed
